The campaign covered roughly 360,000 compounds. About 17,000 (4.7%) were called active. The inconclusive results got no clear call from the source; some entries with a clear call stand among them for comparison. No stated cut-off is given here; in the data, active means activity change below about -50%; inconclusive means mostly about -30% to -49%; inactive means weaker than that.
Experiment: qHTS for Inhibitors of Inflammasome Signaling: IL-1-beta AlphaLISA Primary Screen
Details: THP-1 LPS/ATP IL-1B secretion, 16 h; at 57.5 µM, stronger effect = lower value
Summary of the method: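 THP-1 cells pretreated 1 hr with compounds (up to 57.5 uM final), then stimulated with LPS (250 ng/mL final) plus ATP (1.25 mM final); secreted IL-1B measured by AlphaLISA after 16 hr, decreased signal indicating inhibition.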
On the % scale 0 is the no-effect control and ±100 the full control effect.

| SMILES | activity change |
| --- | --- |
| CN(C)CCCN(C(=O)c1cc(Cl)sc1Cl)c1nc2cc3c(cc2s1)OCO3 | inconclusive: -49.9% |
| Cc1cc(F)ccc1-c1cc(C(=O)N2CCN(c3ccncc3)CC2)[nH]n1 | inconclusive: -36.6% |
| Cc1ccc(SCc2c(-c3ccccc3)nn(C)c2Cl)cc1 | inactive: 7.37% |
| O=C1C=CC(O)C2(CO)OC12 (centres undefined) | active: -89.7% |
| Cc1ccc(N(O)C(=O)NCCCCNC(=O)N(O)c2ccc(C)cc2)cc1 | inactive: -8.25% |
| Cc1ccc(C(=O)C=Cc2ccc3c(c2)OCO3)c(C)c1 | inconclusive: -49.4% |
| COc1ccc(C)cc1S(=O)(=O)N1CCC(C(=O)NCCC2=CCCCC2)CC1 | inactive: 23.6% |
| COc1cc(OC)nc(Nc2nc(C(N)Cc3ccc(C(F)(F)F)cc3)cs2)n1 (centres undefined) | active: -111% |
| Cc1nn(Cc2c(F)c(F)c(F)c(F)c2F)c(C)c1NC(=O)c1ccc(COc2ccccc2Cl)o1 | inconclusive: -32.6% |
| COc1ccc(C(=O)COC(=O)CNC(=O)c2ccccc2)cc1F | inactive: 8.63% |
| COc1ccc2nc(C)cc(Nc3ccccc3O)c2c1 | inconclusive: -36.9% |
| Cc1ccc(N(CC(O)CON=C2c3ccccc3-c3ccccc32)S(C)(=O)=O)cc1 (centres undefined) | inconclusive: -37.7% |
| Cc1cccc(C)c1NC(=O)C1(C)c2cccc[n+]2CC(=O)N1Cc1cccs1 (centres undefined) | inconclusive: -37% |
| CN(Cc1c(C(=O)N/N=C/c2cccc(O)c2)nnn1-c1nonc1N)c1ccccc1 | inconclusive: -42.6% |
| CCCCCC(=O)Nc1cccc(C2=NOC3(C2)C[C@H](C(N)=O)N(C(=O)COc2ccc(Cl)cc2)C3)c1 (some centres undefined) | inconclusive: -45.6% |
| COC(=O)c1ccc(CSc2nncn2N)cc1 | inconclusive: -38.1% |
| Cc1cc(C)cc(NC(=S)/C(=C(\[O-])c2ccc(Cl)cc2Cl)[n+]2ccccc2)c1 | inactive: 15.6% |
| Cc1cccc(CN2CCc3c([nH]c4ccccc34)C2)c1 | inconclusive: -36.6% |
| CCCCc1ccc(Nc2nc(CCC)cc(=O)[nH]2)cc1 | active: -105% |
| Cc1cc(NC(=O)c2c(F)c(F)c(F)c(F)c2F)no1 | inconclusive: -34.3% |
| COc1ccc(C2CCCN2CC(O)COc2ccccc2C(C)C)cc1 (centres undefined) | inconclusive: -44.6% |
| Cc1nc(NCCN2CCOCC2)c2oc3ccccc3c2n1 | inactive: 2.71% |
| Cc1ccc2sc(N3CCN(C(=O)C4=COCCO4)CC3)nc2c1C | inconclusive: -40.7% |
| O=C(Nc1ccc(S(=O)(=O)N2CCCCC2)cc1)c1ccc(F)cc1 | inconclusive: -34% |
| CC(C)(C)NC(=O)C(c1ccco1)N(C(=O)Cn1nnc(-c2ccc(F)cc2)n1)c1ccccc1F (centres undefined) | inconclusive: -33.7% |
| O=C(NC(c1ccc(F)cc1)c1ccc2ccccc2n1)C1CCN(Cc2ccc(Oc3ccccc3)cc2)CC1 (centres undefined) | active: -75.1% |
| CC(C)C[C@H]1CNC(=S)N1CC1CCCN1C[C@H](Cc1ccccc1)N1C[C@H](Cc2ccc(O)cc2)N(CC2CCCCC2)C1=S (some centres undefined) | inconclusive: -46.4% |

| SMILES | activity change |
| --- | --- |
| CN(C)CCCn1c(=O)n(CCc2ccccc2)c(=O)c2c3c(sc21)CCCCC3 | inconclusive: -40.2% |
| Cc1ccc(C2CC(=O)C=C(NCC(C)C)C2)cc1 (centres undefined) | inactive: -22.4% |
| COC(=O)C1(C)CCCC2(C)C3CCC(C(C)C)C(CO)C3C(CO)CC12 (centres undefined) | active: -60% |
| O=C(c1cccs1)N1N=C(c2ccccc2)CC1c1ccc(O)cc1 (centres undefined) | inconclusive: -43.8% |
| O=[N+]([O-])c1cnc(Sc2ccncn2)c([N+](=O)[O-])c1 | inconclusive: -41.6% |
| CCCCN(CC)CCCNC(=O)c1cc2c(=O)[nH]c3ccccc3c2s1 | active: -73.2% |
| C=CCSc1nc2ccccc2n1C(=O)/C=C/c1ccc(OC)c(OC)c1 | active: -102% |
| CCCS(=O)(=O)N1CCN(C(=O)c2ccc(-c3ccccc3)cc2)CC1 | inconclusive: -31.3% |
| CC(NC(=O)c1sc2cc([N+](=O)[O-])ccc2c1Cl)C(C)(C)C (centres undefined) | inconclusive: -40.2% |
| Nc1[nH]c(C(=O)c2ccccc2)c(-c2cccnc2)c1C(=O)NC1CCCCC1 | inactive: -15.5% |
| CCCN=C(C)c1c(-c2ccccc2)[nH]n(-c2nc3ccccc3s2)c1=O | inactive: -5.46% |
| CCCS/C(N)=N/N=C/c1ccccc1O | inconclusive: -43.2% |
| O=C(Cc1ccc([N+](=O)[O-])cc1)c1ccccc1 | inconclusive: -34.9% |
| CCN(C(=O)CN1C(=O)S/C(=C\C=C\c2ccccc2)C1=O)C1CCS(=O)(=O)C1 (centres undefined) | inactive: -26.4% |
| Nc1ccc2oc3ccc(N)cc3c(=O)c2c1 | active: -73.2% |
| CC(C)NC(=O)c1onc(CSc2ccncc2)c1C(=O)NC(C)C | inactive: 23.9% |
| CCC(c1nnnn1Cc1ccco1)N(CCc1ccccc1)Cc1cc2cc(C)ccc2[nH]c1=O (centres undefined) | active: -51.9% |
| Cc1ccc(C(=O)/C=C/c2cn(CN3CCN(C)CC3)c3ccccc23)cc1 | active: -55% |
| C[C@]12c3[nH]c4cc(-c5ccco5)ccc4c3CCN1C(=O)[C@@H](CC(=O)NCC13CC4CC(CC(C4)C1)C3)C[C@@H]2C(=O)N1CCCCC1 | inconclusive: -49.2% |
| Cc1cccc(C)c1NC(=S)N/N=C/c1ccc(OCCC(C)C)cc1 | inconclusive: -39.6% |
| COc1cc2oc3ccc(C#Cc4ccc(N)cc4)cc3c(=O)c2cc1OC | inactive: -22.6% |
| CC1Cc2ccccc2N1C(=O)CN1CCN(S(=O)(=O)c2ccc3c(c2)OCCCO3)CC1 (centres undefined) | inconclusive: -35.1% |
| CC(C)[C@H](NC(=O)c1ccc(Cl)c([N+](=O)[O-])c1)C(=O)NCc1ccc(F)cc1 | inconclusive: -45.5% |
| CCN(CC)C(=O)[C@H]1C[C@H](CC(=O)NCC23CC4CC(CC(C4)C2)C3)C(=O)N2CCc3c([nH]c4cc(CCC(=O)N(C)C)ccc34)[C@]12C | inconclusive: -31.5% |
| COc1ccc(NC(=O)c2cnc(SC)nc2C)c(OC)c1 | inconclusive: -32.6% |
| CCCc1ccc(C(=O)NC(=O)c2ccccc2O)cc1 | inactive: 33.7% |
| CC12CCC(=O)N1C(C(=O)N1CCN(S(=O)(=O)c3ccc(Br)cc3Cl)CC1)CS2 (centres undefined) | inconclusive: -47.7% |
